Reference: the supplement of paper PMC3334620
Over roughly 33,000 sequences, “E-score (-0.5 to 0.5)” has its median near -0.036; the highest 2% begin near 0.37. The list shows a part of the results.

Biological target: T1, Yer064c (UniProt P40041)
T1 sequence: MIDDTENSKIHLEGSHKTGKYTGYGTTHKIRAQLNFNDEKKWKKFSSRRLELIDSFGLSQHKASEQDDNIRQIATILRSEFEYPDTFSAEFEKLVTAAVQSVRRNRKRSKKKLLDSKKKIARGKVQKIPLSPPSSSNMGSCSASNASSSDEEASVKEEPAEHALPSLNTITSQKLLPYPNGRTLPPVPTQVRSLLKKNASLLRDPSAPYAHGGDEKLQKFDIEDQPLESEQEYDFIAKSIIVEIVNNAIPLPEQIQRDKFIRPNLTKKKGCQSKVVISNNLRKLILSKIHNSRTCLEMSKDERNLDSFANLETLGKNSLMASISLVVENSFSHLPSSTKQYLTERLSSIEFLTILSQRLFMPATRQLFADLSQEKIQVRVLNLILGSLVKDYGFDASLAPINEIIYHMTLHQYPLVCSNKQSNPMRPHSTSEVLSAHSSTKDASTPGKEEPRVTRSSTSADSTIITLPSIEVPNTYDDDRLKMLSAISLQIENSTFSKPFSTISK
Assay: PBM E-score (8-mer binding enrichment) (E-score (-0.5 to 0.5)); higher = stronger / more preferred TF binding; most listed sequences are background and not binding sites
Conditions: protein concentration: 200 nM; construct: GST-full length
Procedure, shortened: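 The E-score, a modified Wilcoxon-Mann-Whitney statistic, was computed by the Universal PBM Analysis Suite for every ungapped eight-base word pooled with its reverse complement. Scans behind it were normalised with masliner after bound GST-tagged yeast transcription factors were detected with fluorescent anti-GST. The proteins, at about 100-200 nM, had been applied to universal all-10-mer Agilent arrays made double-stranded by primer extension.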

Row | Sequence | PBM E-score
1 | ACCTTAGC | 0.03
2 | GGGCCCCC | -0.332
3 | AACCCCGA | -0.149
4 | TGAGCGAA | 0.093
5 | AGGGTCAT | -0.0445
6 | AGCGTACG | -0.127
7 | GTGTAGTA | 0.0702
8 | CTGGCTGA | 0.124
9 | AACGTCGT | -0.0362
10 | AGTCGCAA | 0.355
11 | ATTAATAG | 0.152
12 | AAGGCCCT | -0.0941
13 | CCCACCAA | -0.102
14 | CTCAAAGC | 0.137
15 | AGTTGGAA | -0.00887
16 | AATCGGTA | -0.0571
17 | GAATGTGA | 0.164
18 | CATTCGCA | -0.139
19 | TCACCTAA | 0.181
20 | GAGAGCTC | -0.213
21 | AATCGCGT | 0.203
22 | CTCCACTA | 0.0692
23 | AGATCCAG | -0.277
24 | ATCAGTTC | 0.198
25 | TATATGCA | -0.0473

Row | Sequence | PBM E-score
26 | CGCCAGCA | -0.27
27 | GTAGTAGA | -0.0115
28 | CAACAACA | 0.104
29 | GCTGGCGA | -0.156
30 | CAGTGGAC | 0.0837
31 | ATGCCTCA | -0.178
32 | CGGAGCAG | -0.0633
33 | TAGTCGAA | 0.243
34 | AGTACGAA | 0.149
35 | CTACATAC | 0.0297
36 | CGGCGAGA | 0.0493
37 | ATGCCACC | 0.0347
38 | ATTATAGC | -0.0818
39 | AATGCCAG | -0.197
40 | CCTGCATC | -0.0758
41 | ACGATACT | -0.155
42 | ATGCGTAG | -0.0678
43 | GTCGTTCA | 0.141
44 | CTACGGCA | -0.128
45 | GATTTAAC | 0.198
46 | CCGGCCAA | -0.106
47 | CTGTGTTA | 0.127
48 | GGTTTCTA | -0.133
49 | ATTATCCA | 0.0794
50 | TCTCATCA | 0.115

Row | Sequence | PBM E-score
51 | CTGTAGGC | -0.143
52 | GGCTCTGA | 0.0959
53 | GTGGGGCA | -0.136
54 | ATCACTTA | 0.24
55 | ATTAATCG | 0.269
56 | CTACACTA | 0.143
57 | GGTGTAAA | -0.207
58 | CACGTTAC | 0.106
59 | CTTACTTA | 0.0914
60 | AACCAACC | -0.128
61 | ACAGGTCG | -0.251
62 | ATAGTTAC | 0.101
63 | AATTGTGG | 0.0285
64 | CGCGAGCG | -0.174
65 | ATGAGAAT | 0.0479
66 | ATATACCC | -0.0523
67 | AGGTCTGG | -0.193
68 | AAGACACT | 0.0108
69 | AGTTCTTA | 0.106
70 | CTATACAG | -0.0184
71 | CGCACGAG | -0.127
72 | CACTGCTC | 0.00201
73 | CGGTGCGC | -0.165
74 | GGTTATAC | -0.022
75 | CACGTCTA | 0.0964

Row | Sequence | PBM E-score
76 | AATCTTTC | 0.238
77 | AATCCGTA | -0.11
78 | GCACCCTA | -0.325
79 | AATCACTG | 0.375
80 | GTATGAAC | -0.0715
81 | ATACACTG | 0.0148
82 | ACACTCGG | -0.00987
83 | GCTGGGAC | -0.1
84 | GACATACC | -0.168
85 | AGAAAGCT | -0.0789
86 | CTGGATGA | 0.24
87 | GGGACTGA | 0.119
88 | CCGCTAGA | -0.215
89 | AGAAGGTG | -0.0166
90 | AGTAGGAG | -0.0694
91 | GGGGTAAA | -0.17
92 | AACAGTCC | 0.188
93 | AGATCGCA | -0.14
94 | ACGGACCT | -0.222
95 | GGCGGGCA | -0.297
96 | AGGAAGCG | -0.186
97 | ACGCCCAG | -0.157
98 | CCGCACCC | -0.295
99 | CGCCGACC | -0.0763
100 | AGGCATCA | -0.113

Row | Sequence | PBM E-score
101 | CGAAGAGA | 0.0763
102 | TCAGATAA | 0.168
103 | CTGGGTAC | -0.0609
104 | AGTGGAAC | -0.205
105 | ACGGTAGG | -0.117
106 | AGGTCACT | 0.0701
107 | AGCGAACC | 0.0203
108 | TAAACCTA | 0.0281
109 | TCCGTAGA | -0.143
110 | CAGGCTTA | -0.107
111 | AAACCGTA | -0.165
112 | AATCATCC | 0.468
113 | ATTCGCTA | -0.0382
114 | CATACGGC | 0.135
115 | GATATAGA | -0.0585
116 | AGGGCGCC | -0.28
117 | CTCATCAA | 0.271
118 | ATGATCTA | 0.161
119 | CGATAGCA | -0.127
120 | CGACCCCA | -0.132
121 | CTCAACCA | 0.152
122 | ACGGTTGG | -0.239
123 | CACGCACC | -0.193
124 | ACTAGGCT | 0.172
125 | ACCAGTAC | -0.0494

Row | Sequence | PBM E-score
126 | AGGCTAGA | -0.0309
127 | CCTTCTAG | -0.244
128 | CTGTCTGC | -0.125
129 | ACTCTCGA | 0.189
130 | AGCTAGGG | -0.186
131 | CAGCCCAC | -0.0415
132 | GCGGGGCC | -0.172
133 | CGTATTAA | 0.00537
134 | ACCCTATG | 0.155
135 | ACAGTCCG | 0.128
136 | ACTATCGC | 0.257
137 | ACTAAGTC | 0.376
138 | CCCGGCCC | -0.131
139 | TATAAAGA | 0.0948
140 | GCCAATAA | 0.136
141 | AAAGCTGT | -0.129
142 | CTTCTTAC | -0.0554
143 | AATGAACG | -0.112
144 | AATACGAG | 0.122
145 | AACCATCC | 0.268
146 | AACCTACC | -0.192
147 | AACAAAAT | -0.079
148 | CAGGCTCC | -0.087
149 | AGGAGGAC | -0.111
150 | CCGCTCTA | -0.151

Row | Sequence | PBM E-score
151 | CTGGGGGA | -0.129
152 | CAATGGGG | -0.14
153 | CGAACACC | -0.0246
154 | CATAGTTC | -0.0534
155 | GCCTTCCC | -0.305
156 | TCGTACGA | 0.0763
157 | GCATGGCC | -0.271
158 | AACCACGG | 0.179
159 | ATATAATC | 0.179
160 | ATTGGGCC | -0.2
161 | CCCAGCGG | -0.163
162 | CGGCATTA | -0.0404
163 | CGCATTAA | 0.0209
164 | AACCTTGG | -0.177
165 | CCTCCTGC | -0.138
166 | CAACCCAG | -0.181
167 | CTGGACAA | 0.0732
168 | CGACAAAA | 0.0755
169 | ACCACCGA | -0.158
170 | GGTTCAGA | 0.0025
171 | GGTTTTGA | -0.011
172 | TCTGCCCA | -0.146
